According to the supplement of paper PMC4967469:
A lower IC50 marks a more sensitive line; a limit (>, <) means that the fit lies beyond the doses tested. AUC sums up the same curve from the lowest dose to the 256-fold higher top dose; it is 1 without any effect and falls as sensitivity rises. For some assays here: An inferred top dose was derived from the fitted curves, not read from the paper.

Columns and labels:
Assay in all cases: Viability of human cancer cell lines after 72 h of drug (GDSC screen)
[1] = compound: CN(C)C/C=C/C(=O)Nc1ccc(C(=O)Nc2cccc(Nc3nccc(-c4cccnc4)n3)c2)cc1 [ZG-10]; conditions: top dose 10 µM; top dose inferred
Method: (§1)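 Human cancer cell lines in 384-well plates, medium with 10% serum, drug for 72 h over a 256-fold dose range (nine 2-fold or five 4-fold steps up to the top dose). Adherent lines were fixed and stained with the nucleic acid dye Syto60, suspension lines read with resazurin; signal relative to control wells, capped at 0 and 100%. One two-parameter sigmoid per drug and line, fitted in a mixed model over all curves with the slope shared within a line.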

[2] = compound: CN1CCc2c(c3ccccc3n2Cc2ccc(C(=O)NO)cc2)C1 [Tubastatin A]; conditions: top dose 20 µM
Method: as §1

[3] = compound: Cn1nnc2c(C(N)=O)ncn2c1=O [Temozolomide]; conditions: top dose 30 µM
Method: as §1

[4] = compound: COc1cc2c(Oc3ccc(NC(=O)C4(C(=O)Nc5ccc(F)cc5)CC4)cc3F)ccnc2cc1OCCCN1CCOCC1 [XL-880]; conditions: top dose 5.12 µM; top dose inferred
Method: as §1

[5] = compound: O=C(NOCC1CC1)c1ccc(F)c(F)c1Nc1ccc(I)cc1Cl [CI-1040]; conditions: top dose 10 µM; top dose inferred
Method: as §1

[6] = compound: Oc1ccc2ccccc2c1SSc1c(O)ccc2ccccc12 [IPA-3]; conditions: top dose 32 µM; top dose inferred
Method: as §1

Cell Line | AUC [1] | IC50 [1] | AUC [2] | IC50 [2] | AUC [3] | IC50 [3] | AUC [4] | IC50 [4] | AUC [5] | IC50 [5] | AUC [6] | IC50 [6]
RCC-AB (kidney, adherent) | 0.801 | 6.74 µM | 0.901 | > 20 µM | 0.977 | > 30 µM | 0.54 | 0.426 µM | 0.978 | > 10 µM |  | 
IM-95 (stomach, adherent) | 0.749 | 3.44 µM | 0.968 | > 20 µM |  |  | 0.446 | 0.226 µM |  |  | 0.955 | > 32 µM
HT55 (large intestine, adherent) | 0.95 | > 10 µM | 0.989 | > 20 µM |  |  | 0.952 | > 5.12 µM |  |  | 0.987 | > 32 µM
TE-4 (oesophagus, adherent) | 0.615 | 1.29 µM | 0.984 | > 20 µM | 0.971 | > 30 µM | 0.845 | 3.68 µM | 0.891 | > 10 µM |  | 
ESO51 (oesophagus, semi-adherent) | 0.93 | > 10 µM | 0.867 | > 20 µM | 0.968 | > 30 µM | 0.107 | < 0.02 µM | 0.795 | 6.95 µM |  | 
H2803 (mesothelioma, adherent) | 0.965 | > 10 µM | 0.938 | > 20 µM | 0.982 | > 30 µM | 0.749 | 1.9 µM |  |  | 0.911 | > 32 µM
DOV13 (ovary, adherent) | 0.613 | 1.34 µM | 0.969 | > 20 µM | 0.979 | > 30 µM | 0.748 | 1.88 µM | 0.794 | 5.41 µM |  | 
EMC-BAC-1 (lung adenocarcinoma, adherent) | 0.657 | 1.82 µM | 0.942 | > 20 µM | 0.981 | > 30 µM | 0.521 | 0.369 µM | 0.855 | 9.74 µM |  | 
KATOIII (stomach, semi-adherent) | 0.693 | 2.06 µM |  |  | 0.986 | > 30 µM |  |  | 0.909 | > 10 µM |  | 
SK-GT-2 (stomach, adherent) | 0.782 | 4.42 µM |  |  | 0.983 | > 30 µM |  |  | 0.925 | > 10 µM |  | 
OVCAR-3 (ovary, adherent) | 0.652 | 1.72 µM | 0.987 | > 20 µM | 0.985 | > 30 µM | 0.986 | > 5.12 µM |  |  | 0.86 | 31.3 µM
JHOS-2 (ovary, adherent) | 0.694 | 2.42 µM | 0.942 | > 20 µM | 0.966 | > 30 µM | 0.66 | 0.962 µM | 0.682 | 2.2 µM |  | 
CADO-ES1 (Ewing sarcoma, suspension) | 0.967 | > 10 µM | 0.894 | > 20 µM | 0.985 | > 30 µM | 0.459 | 0.247 µM | 0.966 | > 10 µM |  | 
SNU-81 (large intestine, adherent) | 0.636 | 1.69 µM | 0.972 | > 20 µM | 0.962 | > 30 µM | 0.874 | > 5.12 µM | 0.404 | 0.311 µM |  | 
SK-MEL-28 (melanoma, adherent) | 0.718 | 2.54 µM | 0.985 | > 20 µM | 0.976 | > 30 µM | 0.73 | 1.42 µM |  |  | 0.893 | > 32 µM
VMRC-LCD (lung adenocarcinoma, adherent) | 0.714 | 2.23 µM |  |  | 0.987 | > 30 µM |  |  | 0.936 | > 10 µM |  | 
OC-314 (ovary, adherent) | 0.558 | 0.88 µM | 0.989 | > 20 µM | 0.988 | > 30 µM | 0.763 | 1.61 µM | 0.952 | > 10 µM |  | 
YH-13 (glioma, adherent) | 0.68 | 2.05 µM | 0.985 | > 20 µM | 0.985 | > 30 µM | 0.507 | 0.334 µM | 0.881 | > 10 µM |  | 
NCC010 (kidney, adherent) | 0.823 | 6.44 µM |  |  | 0.983 | > 30 µM |  |  | 0.911 | > 10 µM |  | 
ESO26 (oesophagus, adherent) | 0.686 | 2 µM | 0.971 | > 20 µM | 0.987 | > 30 µM | 0.661 | 0.872 µM | 0.952 | > 10 µM |  | 
Jurkat (T-cell leukaemia, suspension) | 0.632 | 1.34 µM |  |  | 0.982 | > 30 µM |  |  | 0.957 | > 10 µM |  | 
MKN7 (stomach, adherent) | 0.926 | > 10 µM |  |  | 0.981 | > 30 µM |  |  | 0.873 | > 10 µM |  | 
CL-34 (large intestine, adherent) | 0.782 | 4.64 µM |  |  | 0.979 | > 30 µM |  |  | 0.658 | 1.8 µM |  | 
RCC-MF (kidney, adherent) | 0.818 | 7.9 µM | 0.823 | 16.7 µM | 0.956 | > 30 µM | 0.633 | 0.834 µM | 0.778 | 5.33 µM |  | 
MFE-319 (endometrium, adherent) | 0.754 | 3.26 µM | 0.987 | > 20 µM | 0.988 | > 30 µM | 0.821 | 2.86 µM |  |  | 0.872 | 28.9 µM
OV-56 (ovary, adherent) | 0.845 | 6.79 µM | 0.983 | > 20 µM | 0.988 | > 30 µM | 0.815 | 2.66 µM | 0.833 | 6.07 µM |  | 
ZR-75-30 (breast, adherent) | 0.837 | > 10 µM |  |  | 0.981 | > 30 µM |  |  | 0.924 | > 10 µM |  | 
HCT-116 (large intestine, adherent) | 0.67 | 1.81 µM | 0.9 | > 20 µM |  |  | 0.529 | 0.383 µM |  |  | 0.98 | > 32 µM
